Source: publication PMC4336329 (PLoS ONE, 2015)
Among all 310,000 compounds or so, about 2,200 (0.71%) showed an effect of 50% or more. The effect is printed as a negative number. Some of the results follow.

Target: human ether-à-go-go-related gene (hERG) potassium channel (human, UniProt Q12809)
Assay: primary screen, population patch clamp on CHO cells stably expressing hERG

human ether-à-go-go-related gene (hERG) potassium channel, sequence (Q12809 whole entry, looked up): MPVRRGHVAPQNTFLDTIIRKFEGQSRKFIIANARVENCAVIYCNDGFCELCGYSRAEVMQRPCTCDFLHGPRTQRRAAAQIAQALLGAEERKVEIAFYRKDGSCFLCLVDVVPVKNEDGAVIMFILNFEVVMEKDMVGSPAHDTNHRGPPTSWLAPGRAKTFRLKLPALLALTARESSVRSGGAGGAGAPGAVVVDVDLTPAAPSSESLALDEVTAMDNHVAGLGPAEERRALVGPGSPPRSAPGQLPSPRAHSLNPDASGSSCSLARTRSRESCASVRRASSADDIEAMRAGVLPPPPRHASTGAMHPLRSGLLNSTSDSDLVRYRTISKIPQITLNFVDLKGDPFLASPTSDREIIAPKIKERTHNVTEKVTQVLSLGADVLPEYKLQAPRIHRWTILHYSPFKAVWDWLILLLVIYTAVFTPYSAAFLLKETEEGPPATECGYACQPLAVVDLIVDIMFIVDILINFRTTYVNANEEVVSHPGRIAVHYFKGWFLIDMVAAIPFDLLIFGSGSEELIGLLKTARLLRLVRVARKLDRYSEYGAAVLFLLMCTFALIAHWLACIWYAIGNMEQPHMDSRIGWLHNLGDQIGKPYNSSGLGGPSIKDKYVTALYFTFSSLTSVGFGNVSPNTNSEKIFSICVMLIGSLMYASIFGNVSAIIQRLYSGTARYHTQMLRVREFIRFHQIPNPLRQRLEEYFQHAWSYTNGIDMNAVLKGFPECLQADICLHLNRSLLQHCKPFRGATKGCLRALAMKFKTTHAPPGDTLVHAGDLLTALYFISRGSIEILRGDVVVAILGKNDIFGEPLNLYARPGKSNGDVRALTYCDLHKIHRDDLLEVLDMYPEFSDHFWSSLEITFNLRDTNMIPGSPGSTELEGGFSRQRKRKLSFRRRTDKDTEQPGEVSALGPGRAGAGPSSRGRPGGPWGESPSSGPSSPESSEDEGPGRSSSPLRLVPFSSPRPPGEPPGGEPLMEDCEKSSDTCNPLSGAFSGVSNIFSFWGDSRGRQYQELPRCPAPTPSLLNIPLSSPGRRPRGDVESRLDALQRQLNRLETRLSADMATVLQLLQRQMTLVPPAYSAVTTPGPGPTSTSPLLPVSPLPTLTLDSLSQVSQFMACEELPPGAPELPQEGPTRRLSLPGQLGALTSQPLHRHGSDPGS

Row | SMILES | hERG current change (%, negative = inhibition) at 1uM
1 | CCOCCCNC(=O)CCSc1ccc(C)cc1 | 0.816%
2 | COc1ccc(CN(C(=O)c2cc(=O)c3ccccc3o2)C2CCS(=O)(=O)C2)cc1 (stereo not shown) | 3.8%
3 | O=C(/C=C/c1ccc(F)cc1)Nc1ccc(S(=O)(=O)Nc2ncccn2)cc1 | 12.9%
4 | O=C(N/N=C/c1cccnc1)c1ccccc1 | 14.5%
5 | CC1(C)C(=O)Nc2ccccc2N1C(=O)CN1C(=O)C(=O)N(C2CCCC2)C1=O | 0.681%
6 | CNc1ccccc(-c2ccc3ccccc3n2)c1=O | 3.23%
7 | N#C/C(=C/c1cn(-c2ccccc2)nc1-c1cccc(S(=O)(=O)N2CCCC2)c1)C(=O)NCc1ccco1 | 9.99%
8 | COc1ccc(/C=C/C(=O)OCC(=O)Nc2ccc(N3CCOCC3)cc2)cc1OC | 11.7%
9 | O=C(N/N=C/c1cccn1-c1ccc([N+](=O)[O-])cc1)c1cccnc1 | 2.29%
10 | COc1ccc(C(=O)COC(=O)c2ccc(OC)c(OC)c2)cc1OC | 3.77%
11 | COc1ccc(CNC(=O)c2cc(-c3ccncc3)nc3c(C)cc(C)cc23)cc1OC | 11%
12 | S=C(NCc1ccc2[nH]c3c(c2c1)CCCC3)Nc1ccccc1 | 12.3%
13 | CCOC(=O)Cn1nc(Cc2ccccc2)c2ccccc2c1=O | 9.37%
14 | O=C(Oc1ccc(N(C(=O)c2ccncc2)S(=O)(=O)c2ccc(F)cc2)cc1)c1ccncc1 | 9.57%
15 | COc1cc2cc(C(=O)N3CCN(Cc4ccc5c(c4)OCO5)CC3)[nH]c2cc1OC | 12%
16 | Cc1ccc(-n2c(C)cc(C(=O)COc3c(CO)cc(F)cc3CO)c2C)cc1C | -1.02%
17 | Cl.OC(COc1ccc(Cl)cc1)CN1CCCCC1 (stereo not shown) | -29.8%
18 | Cc1ccccc1-n1c(C)cc(/C=C2/C(=N)N3C(c4ccccc4)=CSC3=NC2=O)c1C | 12.2%
19 | O=C(CSc1nc2ccccc2c(=O)n1-c1ccc(F)cc1)Nc1ccc2c(c1)CCC2 | 11.7%
20 | O=C(CNC(=O)c1ccccc1)OCC(=O)c1ccc(Cl)s1 | 3.78%
21 | COc1cc(CN2CCC(C(=O)NC3CCCC3)CC2)cc(Br)c1O.O=C(O)C(=O)O | -13%
22 | COc1ccc(N2CCN(C(=O)c3cc(N4C(=O)C5C6CCC(C6)C5C4=O)ccc3Cl)CC2)cc1 (stereo not shown) | 5.73%

Row | SMILES | hERG current change (%, negative = inhibition) at 1uM
23 | CC(NC(=O)Nc1ccc(O)cc1)(C(F)(F)F)C(F)(F)F | 18%
24 | CCn1ncc(C(=O)Nc2ccccc2C)c1C | 4.2%
25 | CCOc1ccc(C(CC(=O)O)NC(=O)C(CC)c2ccccc2)cc1 (stereo not shown) | 9%
26 | COc1ccc(-c2nnc(SC)n2C)cc1 | 5.58%
27 | Cc1ccc(S(=O)(=O)N2CCN(c3nccnc3C#N)CC2)cc1 | -3.83%
28 | Cc1ccc(S(=O)(=O)NCCCCCC(=O)Nc2ccccc2C)cc1 | 5.43%
29 | Cc1ccccc1NC(=O)c1ccccn1 | 11.4%
30 | COc1cc(-c2nnc(SCC(=O)c3ccccc3)o2)cc(OC)c1OC | 12.8%
31 | COc1cccc2c1cc1c(=O)n(CC(=O)NCCCc3ccccc3)nc(C)n12 | 3%
32 | Cc1ccccc1C[n+]1cccc2ccccc21.[Br-] | 0.0109%
33 | CCOc1ccc(N2C(=O)Nc3ccc(Br)cc3C2(O)C(=O)NCCCN(C)C)cc1 (stereo not shown) | 12.6%
34 | Cl.OC(COc1ccc2c(c1)OCO2)CN1CCN(c2ccccc2)CC1 (stereo not shown) | 12.7%
35 | CC(=O)c1cccc(NC(=S)NC(=O)c2cncc(Br)c2)c1 | 10.1%
36 | C[C@H](NC(=O)c1nc[nH]c1C(=O)NCc1ccccc1)c1ccccc1 | 12.1%
37 | CC1CCCCC1NC(=O)c1nnc(Cc2ccc(Cl)cc2)o1 (stereo not shown) | -0.665%
38 | O=C(Nc1ccccn1)c1ccc(S(=O)(=O)N2CCCCC2)cc1 | 8.6%
39 | CCOC(=O)c1nn(-c2ccccc2F)c2nc(Nc3ccccc3)cc(=O)n12 | 9.69%
40 | Cc1c(C(=O)N2CCc3ccccc3C2)sc2nc(-c3ccccc3)cn12 | 8.64%
41 | CCC(C)Sc1nc2c(cnn2-c2ccc(C)c(C)c2)c(=O)[nH]1 (stereo not shown) | 0.874%
42 | OCc1cn(-c2ccccc2)nc1-c1ccc(Br)cc1 | 12.6%
43 | O=C(c1noc2c1CCCC2)N1CCN(Cc2ccccc2)CC1 | 4.17%
44 | O=C(Cn1cc(Br)ccc1=O)Nc1ccc2c(c1)OCO2 | 19.5%

Row | SMILES | hERG current change (%, negative = inhibition) at 1uM
45 | O=C(N/N=C/c1ccco1)c1cc(-c2ccccc2)nc2ccccc12 | 8.72%
46 | CC1=CC(C)=[NH+]c2ccc(C)cc2N1.[Cl-] | 4.42%
47 | CCOc1cccc(C(=O)Nc2cccnc2)c1 | 4.56%
48 | CCCC(=O)Nc1ccc(N2CCN(C(=O)c3cccs3)CC2)cc1 | -1.23%
49 | COc1cc(OC)cc(C(=O)N2CCN(Cc3ccc4c(c3)OCO4)CC2)c1.O=C(O)C(=O)O | 8.19%
50 | Cc1cc(C=O)c(C)n1-c1sc2c(c1C(=O)O)CCCC2 | 7.27%
51 | O=C(CN1CCN(c2ccccc2)CC1)c1ccc2cc[nH]c2c1 | 11.6%
52 | Cc1ccc(S(=O)(=O)N2CCCC(C(=O)NC3CCCC3)C2)cc1Cl (stereo not shown) | 24.8%
53 | Cc1ccccc1OCC(=O)NCCNC(=O)c1cccnc1 | 22.9%
54 | CCCCS(=O)(=O)N1C2=NC(C(=O)OC)=C(C(=O)OC)[C@@H]3N(C)c4ccc(OC)cc4[C@]23C[C@H]1C(=O)OC | 8.48%
55 | O=C(CNCC1CCCO1)Nc1ccc(N2CCCCCC2)cc1.O=C(O)C(=O)O (stereo not shown) | -7.7%
56 | O=C(O)c1ccc(N=Cc2c(O)ccc3ccccc23)cc1 | 17.8%
57 | CN(C)S(=O)(=O)c1cc(C(=O)NCC2CCCO2)c(Cl)cc1Cl (stereo not shown) | 7.06%
58 | CCCCn1c(O)c(C(C)=NCCN2CCCCC2)c(=O)[nH]c1=O | -1.95%
59 | O=c1[nH]nc2c3ccccc3cnn12 | 3.75%
60 | COc1ccc(NC(=O)OCCN2CCN(Cc3ccccc3)CCC2=O)cc1 | 6.27%
61 | O=[N+]([O-])c1ccc(N2CCN(C(=S)c3cccc([N+](=O)[O-])c3)CC2)cc1 | -16.7%
62 | Cc1cc2c(c(=O)n1Cc1cccnc1)C(c1ccc(F)cc1)C(C#N)=C(N)O2 (stereo not shown) | 10.6%
63 | COc1ccc(NC(=S)c2ccc3ccccc3n2)cc1 | 26.7%
64 | COc1cc(OC)c(C2C(C#N)=C(N)OC3=C2C(=O)CC(C)(C)C3)cc1OC (stereo not shown) | 10.2%
65 | Cc1cccc(C(=O)Nc2ccc(N3CCN(C(=O)c4ccco4)CC3)cc2)c1 | 10.5%
66 | C/C(CC(=O)Nc1ccccn1)=N\NC(=O)c1ccc(C)cc1 | 2.42%

Row | SMILES | hERG current change (%, negative = inhibition) at 1uM
67 | C=CCN(C(=O)CNC(=O)c1ccco1)C(C(=O)NC1CCCCC1)c1ccc(OC)cc1 (stereo not shown) | 14.4%
68 | COc1ccc(C(=O)N2CCN(C(=O)c3ccncc3)CC2)cc1 | 13.8%
69 | COc1ccc(/C=N/NC(=O)C(=O)NCc2cccnc2)cc1OC | -11.8%
70 | O=S(=O)(c1cc(Cl)ccc1Cl)N1CCN(c2ccccn2)CC1 | 9.68%
71 | Cc1ccc(CC(=O)Nc2ccc(S(=O)(=O)N3CCOCC3)cc2)cc1 | 7.26%
72 | CN(C)C(=O)Oc1ccc(Br)c2ccccc12 | 8.12%
73 | CNC(=O)c1cccn(Cc2cccc(C(F)(F)F)c2)c1=O | 12.1%
74 | CCn1c(SCC(=O)N/N=C/c2c[nH]c3ccccc23)nnc1-c1ccc(Cl)cc1 | 4.45%
75 | O=C(N/N=C1\CC(c2ccccc2)Oc2ccccc21)c1ccccn1 (stereo not shown) | 11%
76 | Cc1nc2c(-c3ccc(F)cc3)cnn2c(N)c1-c1ccccc1 | 16%
77 | O=C(Nc1ccccc1Cl)C1C2CCC3C(CCC21)C3(Cl)Cl (stereo not shown) | 10.9%
78 | COc1cccc(OC)c1C(=O)Nc1ccc(NC(=O)c2ccco2)cc1 | 8.51%
79 | CCOCCOC(=O)COC(=O)c1ccccc1NC(=O)c1ccccc1 | 10.7%
80 | COc1ccc(C2C=C(Nc3ccccc3)C(=O)N2c2ccccc2)cc1OC (stereo not shown) | 20.1%
81 | Cc1cc(N2CCOCC2)nc(SCc2c(Cl)cccc2Cl)n1 | 1.88%
82 | COc1ccc(/C=N\n2nnc3ccccc32)cc1 | 7.28%
83 | Cc1ccc(-n2c(C)cc(C3N=C(N)Nc4nc5ccccc5n43)c2C)c(C)c1 (stereo not shown) | 1.8%
84 | O=C(COc1ccc(Cl)cc1)Nc1c(-c2cccs2)nc2ccccn12 | 9.44%
85 | Cc1cc(N/N=C/c2ccccc2Br)nc2ccccc12 | 14.7%
86 | C=C(C)CSc1nc2ccccc2c(=O)n1-c1c(C)n(C)n(-c2ccccc2)c1=O | 13.7%
87 | CC(NC(=O)Cc1ccc(S(=O)(=O)N2CCOCC2)s1)c1ccc(Cl)cc1Cl (stereo not shown) | 17.2%
88 | CCOc1ccc2oc(C(=O)OCC(=O)N3CC(C)OC(C)C3)c(C)c2c1 (stereo not shown) | 14.4%
